Data reported in PubChem BioAssay AID686978 (National Center for Advancing Translational Sciences (NCATS), 2013).
The whole screen tested about 420,000 compounds, of which about 64,000 (15%) were called active. The inconclusive results got no clear call from the source; some entries with a clear call stand among them for comparison. Calls come from the whole dose curve; as a rule, active = well fitted inhibition curve with a large enough effect; inconclusive = small, poorly fitted or top-dose-only effect; inactive = flat fitted curve, though single readings scatter. Potencies of inconclusive entries are left out as doubtful fits.

assay: qHTS for Inhibitors of human tyrosyl-DNA phosphodiesterase 1 (TDP1): qHTS in cells in absence of CPT; conditions: DT40 Tdp1-/- hTDP1 cells, no CPT, ATP luminescence, 48 h; activity change, negative = growth inhibition: at 46.2 µM (top of the series) unless noted; note: nearly all actives have a fitted effect of over 55% in size
Summary of the method: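 Compound effects on proliferation are scored in DT40 Tdp1-/-;hTDP1 cells in the absence of CPT. ATP levels (CellTiter-Glo luminescence) are recorded after a ≥48 hr, 37 °C incubation.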
% is set by controls: 0 for no effect and ±100 for the full control effect; potency is the fitted concentration of half-maximal effect; tags give direction and shape of the fitted curve.

Compound	Potency	activity change, negative = growth inhibition
CCOc1ccc(CCNC(=O)C2CCCN(c3nnc(-n4cccc4)s3)C2)cc1OCC (stereo unspecified)	inconclusive [inhibitor, single point]	
CCOc1ccc(-c2c(C)sc3nc[nH]c(=O)c23)cc1	active: 16.4 µM	
COCCn1c(SCC(=O)N2CCCc3ccccc32)nc2c(c1=O)SC(C)C2 (stereo unspecified)	inconclusive [inhibitor, single point]	
Nc1ccc(-c2nc3cc(N)ccc3n2CCO)cc1		inactive: -10.3%
CC(C)C[C@H](NC(=O)c1[nH]cnc1C(=O)N[C@@H](Cc1ccccc1)C(=O)OCc1ccccc1)C(=O)OCc1ccccc1	inconclusive [inhibitor, single point]	
Cc1nnc(SCC(=O)Nc2cccc([N+](=O)[O-])c2)n1CC1CCCO1 (stereo unspecified)		inactive: -17.7%
CCOc1ccc(S(=O)(=O)N2CCC(C(=O)N3CCN(C)CC3)CC2)cc1Cl		inactive: -2.39%
O=C(COc1ccc([N+](=O)[O-])cc1)Nn1cnnc1		inactive: -20.5%
Cc1nc(-c2ccc(Cl)cc2)sc1C(=O)CBr	inconclusive [inhibitor, single point]	
CC1CCCN(CCC(=O)c2ccccc2)C1 (stereo unspecified)	active: 10.3 µM	
CCC(C)(C)NC(=O)C(c1ccc(OC)cc1)N(C(=O)CCC(=O)Nc1cc(C)on1)c1cc(OC)ccc1OC (stereo unspecified)		inactive: -29.1%
O=C(c1ccc(-c2ccccc2)cc1)C1CCCN(C(=O)c2cncs2)C1 (stereo unspecified)	inconclusive [inhibitor, single point]	
C[C@H]1CNC(=O)c2c(C(=O)N[C@@H](Cc3c[nH]c4ccccc34)C(=O)OC(C)(C)C)ncn21		inactive: -4.66%
Cc1ccnc2c(N)cccc12	active: 12.6 µM	
Cc1nc2sc(C(c3ccco3)N3CCN(c4cccc(Cl)c4)CC3)c(O)n2n1 (stereo unspecified)	inconclusive [inhibitor, partial curve]	
Cc1ccccc1Nc1c(-c2ccc(O)cc2)nc2c(C)cccn12	inconclusive [inhibitor, single point]	
O=C(O)c1ccc(Oc2cc(Oc3ccc(C(=O)O)cc3)cc([N+](=O)[O-])c2)cc1		inactive: -6.59%
O=C(c1ccc(F)c(F)c1)N1CCCc2ccccc21	inconclusive [inhibitor, single point]	
CC1CCCC(NC(=O)COC(=O)c2n[nH]c3ccccc23)C1C (stereo unspecified)	inconclusive [inhibitor, single point]	
O=C(CN1CCN(c2nc(-c3ccc(Cl)cc3)cs2)CC1)NCc1ccco1	inconclusive [inhibitor, single point]	
Cc1cccc(Cn2cnc3c(nnn3Cc3ccccc3F)c2=O)c1	active: 28.2 µM	
